In the antibiotic and cytotoxicity screens of Wong et al. (2023):
Some of the results follow.

Key:
HSkMC = human skeletal muscle cells; experiment: cytotoxicity call (relative viability < 0.9); details: 10 µM
HepG2 = experiment: cytotoxicity call (relative viability < 0.9); details: 10 µM
S. aureus RN4220 = experiment: growth inhibition call (relative growth <= 0.2); details: 50 µM

C[C@H](CO)N1C[C@H](C)[C@@H](CN(C)C(=O)Nc2ccc3c(c2)OCO3)Oc2c(NS(C)(=O)=O)cccc2C1=O
inactive: cytotoxicity call (HSkMC) | cytotoxicity call (HepG2) | growth inhibition call (S. aureus RN4220)

O=C(C[C@H]1CC[C@@H]2[C@H](COC[C@@H](O)CN2C(=O)c2ccccc2)O1)N1CCOCC1
inactive: cytotoxicity call (HSkMC) | cytotoxicity call (HepG2) | growth inhibition call (S. aureus RN4220)

C[C@H](CO)N1C[C@H](C)[C@H](CN(C)C(=O)CCCN(C)C)OCCCC[C@H](C)Oc2ccc(NS(C)(=O)=O)cc2C1=O
inactive: cytotoxicity call (HSkMC) | cytotoxicity call (HepG2) | growth inhibition call (S. aureus RN4220)

C[C@@H]1CCCCO[C@@H](CN(C)C(=O)Nc2ccc(F)cc2)[C@@H](C)CN([C@@H](C)CO)C(=O)c2cc(NC(=O)Nc3ccc(F)cc3)ccc2O1
inactive: cytotoxicity call (HSkMC) | cytotoxicity call (HepG2) | growth inhibition call (S. aureus RN4220)

C[C@@H]1CN([C@H](C)CO)C(=O)c2ccccc2-c2ccccc2CO[C@H]1CN(C)C(=O)Nc1ccccc1C(F)(F)F
inactive: cytotoxicity call (HSkMC) | cytotoxicity call (HepG2) | growth inhibition call (S. aureus RN4220)

CC(=O)NC(CS)C(=O)O (stereo unspecified)
inactive: cytotoxicity call (HSkMC) | cytotoxicity call (HepG2) | growth inhibition call (S. aureus RN4220)

C[C@@H]1CN([C@@H](C)CO)C(=O)Cc2cc(NS(=O)(=O)c3cn(C)cn3)ccc2O[C@H]1CN(C)C(=O)NC1CCCCC1
inactive: cytotoxicity call (HSkMC) | cytotoxicity call (HepG2) | growth inhibition call (S. aureus RN4220)

C[C@@H]1CCCCO[C@@H](CN(C)Cc2ccc3c(c2)OCO3)[C@H](C)CN([C@H](C)CO)C(=O)c2cc(NC(=O)NC3CCCCC3)ccc2O1
inactive: cytotoxicity call (HSkMC) | cytotoxicity call (HepG2) | growth inhibition call (S. aureus RN4220)

C[C@@H]1CN([C@H](C)CO)C(=O)Cc2cc(NS(=O)(=O)c3cn(C)cn3)ccc2O[C@@H]1CN(C)S(=O)(=O)c1ccccc1
inactive: cytotoxicity call (HSkMC) | cytotoxicity call (HepG2) | growth inhibition call (S. aureus RN4220)

C[C@@H]1CN([C@@H](C)CO)C(=O)c2cc(-c3ccc(C#N)cc3)cnc2O[C@H]1CN(C)C(=O)Nc1ccc(C(F)(F)F)cc1
inactive: cytotoxicity call (HSkMC) | cytotoxicity call (HepG2) | growth inhibition call (S. aureus RN4220)

O=C(CN1CCOCC1)N[C@@H]1CC[C@H](CCNC(=O)C2CCCCC2)O[C@@H]1CO
inactive: cytotoxicity call (HSkMC) | cytotoxicity call (HepG2) | growth inhibition call (S. aureus RN4220)

Cc1ccccc1S(=O)(=O)N1C[C@H](O)COC[C@@H]2O[C@@H](CC(=O)NCc3ccccc3Cl)CC[C@H]21
inactive: cytotoxicity call (HSkMC) | cytotoxicity call (HepG2) | growth inhibition call (S. aureus RN4220)

Cc1n[nH]c(=O)nc1NCCCOC(C)C
inactive: cytotoxicity call (HSkMC) | cytotoxicity call (HepG2) | growth inhibition call (S. aureus RN4220)

C[C@@H]1CN([C@H](C)CO)C(=O)c2cc(NC(=O)CCCN(C)C)ccc2O[C@H]1CN(C)S(=O)(=O)c1cn(C)cn1
inactive: cytotoxicity call (HSkMC) | cytotoxicity call (HepG2) | growth inhibition call (S. aureus RN4220)

C[C@H]1CN([C@@H](C)CO)C(=O)c2cc(NC(=O)Cc3ccccc3)ccc2O[C@@H]1CN(C)Cc1ccc(C(F)(F)F)cc1
inactive: cytotoxicity call (HSkMC) | cytotoxicity call (HepG2) | growth inhibition call (S. aureus RN4220)

C[C@@H]1CCCCO[C@H](CN(C)C(=O)c2ccncc2)[C@@H](C)CN([C@@H](C)CO)C(=O)c2cc(NC(=O)C3CCCCC3)ccc2O1
inactive: cytotoxicity call (HSkMC) | cytotoxicity call (HepG2) | growth inhibition call (S. aureus RN4220)

C[C@@H]1CN([C@@H](C)CO)S(=O)(=O)c2ccc(C#CC3(O)CCCC3)cc2O[C@@H]1CN(C)C(=O)Cc1ccncc1
inactive: cytotoxicity call (HSkMC) | cytotoxicity call (HepG2) | growth inhibition call (S. aureus RN4220)

Cc1ccc(S(=O)(=O)N(C)C[C@H]2Oc3ncc(Br)cc3C(=O)N([C@@H](C)CO)C[C@@H]2C)cc1
inactive: cytotoxicity call (HSkMC) | cytotoxicity call (HepG2) | growth inhibition call (S. aureus RN4220)

CCCCc1nc(Cl)c(CO)n1Cc1ccc(-c2ccccc2-c2nnn[nH]2)cc1
inactive: cytotoxicity call (HSkMC) | cytotoxicity call (HepG2) | growth inhibition call (S. aureus RN4220)

O=C(C[C@H]1CC[C@H]2[C@@H](COC[C@@H](O)CN2S(=O)(=O)c2cccc(F)c2)O1)NCc1ccncn1
inactive: cytotoxicity call (HSkMC) | cytotoxicity call (HepG2) | growth inhibition call (S. aureus RN4220)

CO[C@@H]1CN(C)C(=O)c2ccc(NS(=O)(=O)c3cn(C)cn3)cc2OC[C@@H](C)N(CCC(F)(F)F)C[C@@H]1C
inactive: cytotoxicity call (HSkMC) | cytotoxicity call (HepG2) | growth inhibition call (S. aureus RN4220)

CO[C@@H]1CN(C)C(=O)c2cc(NS(=O)(=O)c3cn(C)cn3)ccc2OC[C@@H](C)N(CC2CC2)C[C@H]1C
inactive: cytotoxicity call (HSkMC) | cytotoxicity call (HepG2) | growth inhibition call (S. aureus RN4220)

C[C@H](CO)N1C[C@H](C)[C@@H](CN(C)S(=O)(=O)c2cn(C)cn2)Oc2c(NC(=O)Nc3ccc4c(c3)OCO4)cccc2C1=O
inactive: cytotoxicity call (HSkMC) | cytotoxicity call (HepG2) | growth inhibition call (S. aureus RN4220)

C[C@@H]1CCCCO[C@H](CN(C)C(=O)c2ccccc2)[C@H](C)CN([C@H](C)CO)C(=O)c2cc(NC(=O)C3CCCCC3)ccc2O1
inactive: cytotoxicity call (HSkMC) | cytotoxicity call (HepG2) | growth inhibition call (S. aureus RN4220)

C[C@@H]1CN([C@@H](C)CO)C(=O)c2cccc(NC(=O)C3CCCCC3)c2O[C@@H]1CN(C)C(=O)Nc1cccc2ccccc12
inactive: cytotoxicity call (HSkMC) | cytotoxicity call (HepG2) | growth inhibition call (S. aureus RN4220)

C=C1OC(=O)C2=C1O[C@H](/C=C/C)[C@@H](O)[C@@H]2O
inactive: cytotoxicity call (HSkMC) | cytotoxicity call (HepG2) | growth inhibition call (S. aureus RN4220)

Cc1noc(C)c1NC(=O)Nc1ccc2c(c1)C(=O)N([C@@H](C)CO)C[C@H](C)[C@@H](CN(C)Cc1ccc(C(=O)O)cc1)OCCCC[C@H](C)O2
inactive: cytotoxicity call (HSkMC) | cytotoxicity call (HepG2) | growth inhibition call (S. aureus RN4220)

O=C(C[C@@H]1CC[C@@H]2[C@H](COC[C@@H](O)CN2S(=O)(=O)c2ccc(F)cc2)O1)N[C@@H]1CCN(Cc2ccccc2)C1
inactive: cytotoxicity call (HSkMC) | cytotoxicity call (HepG2) | growth inhibition call (S. aureus RN4220)

C/C=C/c1ccc2c(c1)O[C@@H](CN(C)C(=O)c1ccc3c(c1)OCO3)[C@H](C)CN([C@@H](C)CO)S2(=O)=O
inactive: cytotoxicity call (HSkMC) | cytotoxicity call (HepG2) | growth inhibition call (S. aureus RN4220)

C[C@H]1CN([C@@H](C)CO)C(=O)CCCn2nncc2CO[C@H]1CN(C)C(=O)Nc1cccc(Oc2ccccn2)c1
inactive: cytotoxicity call (HSkMC) | cytotoxicity call (HepG2) | growth inhibition call (S. aureus RN4220)

C[C@H](CO)N1C[C@H](C)[C@H](CN(C)C(=O)Cc2cccnc2)Oc2ncc(C#Cc3ccccc3F)cc2C1=O
inactive: cytotoxicity call (HSkMC) | cytotoxicity call (HepG2) | growth inhibition call (S. aureus RN4220)

Cc1noc(C)c1S(=O)(=O)N(C)C[C@@H]1Oc2ccc(NC(=O)Nc3ccccc3)cc2CC(=O)N([C@@H](C)CO)C[C@@H]1C
inactive: cytotoxicity call (HSkMC) | cytotoxicity call (HepG2) | growth inhibition call (S. aureus RN4220)

N[C@]12CC[C@](C(=O)O)(CC1)C2
inactive: cytotoxicity call (HSkMC) | cytotoxicity call (HepG2) | growth inhibition call (S. aureus RN4220)

C[C@H](CO)N1C[C@H](C)[C@H](CN(C)C(=O)c2ccccc2)OCCCC[C@H](C)Oc2ccc(NC(=O)Cc3ccccc3)cc2C1=O
inactive: cytotoxicity call (HSkMC) | cytotoxicity call (HepG2) | growth inhibition call (S. aureus RN4220)

CN1C(=O)c2cc(NC(=O)c3cnccn3)ccc2OC[C@@H]2O[C@@H](CC(=O)N[C@@H]3CCN(Cc4ccccc4)C3)CC[C@H]21
inactive: cytotoxicity call (HSkMC) | cytotoxicity call (HepG2) | growth inhibition call (S. aureus RN4220)

CO[C@@H]1CN(C)C(=O)c2ccc(NS(C)(=O)=O)cc2OC[C@@H](C)N(C(=O)c2ccc3c(c2)OCO3)C[C@@H]1C
inactive: cytotoxicity call (HSkMC) | cytotoxicity call (HepG2) | growth inhibition call (S. aureus RN4220)

C[C@@H]1CN([C@@H](C)CO)C(=O)c2cc(NS(=O)(=O)c3ccc(Cl)cc3)ccc2O[C@H]1CN(C)S(=O)(=O)c1cn(C)cn1
inactive: cytotoxicity call (HSkMC) | cytotoxicity call (HepG2) | growth inhibition call (S. aureus RN4220)

C[C@H]1CN([C@@H](C)CO)C(=O)c2cc(NC(=O)Nc3cccc4ccccc34)ccc2O[C@@H]1CN(C)Cc1ccc2c(c1)OCO2
inactive: cytotoxicity call (HSkMC) | cytotoxicity call (HepG2) | growth inhibition call (S. aureus RN4220)

C[C@H]1CN([C@@H](C)CO)S(=O)(=O)c2ccc(-c3cncnc3)cc2O[C@H]1CN(C)C(=O)c1ccc2c(c1)OCO2
inactive: cytotoxicity call (HSkMC) | cytotoxicity call (HepG2) | growth inhibition call (S. aureus RN4220)

CCS(=O)(=O)Nc1ccc2c(c1)C(=O)N(C)[C@H]1CC[C@@H](CC(=O)NCc3ccc(OC)cc3)O[C@@H]1CO2
inactive: cytotoxicity call (HSkMC) | cytotoxicity call (HepG2) | growth inhibition call (S. aureus RN4220)

C[C@@H]1CN([C@H](C)CO)C(=O)c2cc(NC(=O)Cc3ccccc3)ccc2O[C@H]1CN(C)Cc1ccc(C(F)(F)F)cc1
inactive: cytotoxicity call (HSkMC) | cytotoxicity call (HepG2) | growth inhibition call (S. aureus RN4220)

CNC(=O)Cc1ccccc1
inactive: cytotoxicity call (HSkMC) | cytotoxicity call (HepG2) | growth inhibition call (S. aureus RN4220)

Cc1ccccc1S(=O)(=O)N1C[C@H](O)COC[C@H]2O[C@H](CC(=O)N3CCOCC3)CC[C@@H]21
inactive: cytotoxicity call (HSkMC) | cytotoxicity call (HepG2) | growth inhibition call (S. aureus RN4220)

CN1C(=O)c2cc(NS(C)(=O)=O)ccc2OC[C@@H]2O[C@@H](CC(=O)N3CCOCC3)CC[C@H]21
inactive: cytotoxicity call (HSkMC) | cytotoxicity call (HepG2) | growth inhibition call (S. aureus RN4220)

CO[C@@H]1CN(C)C(=O)c2ccc(NS(=O)(=O)c3cccc(C)c3)cc2OC[C@@H](C)N(Cc2cc(F)ccc2F)C[C@H]1C
inactive: cytotoxicity call (HSkMC) | cytotoxicity call (HepG2) | growth inhibition call (S. aureus RN4220)

C[C@@H]1CCCCO[C@@H](CN(C)Cc2ccc(Cl)c(Cl)c2)[C@H](C)CN([C@H](C)CO)C(=O)c2cc(NC(=O)NC3CCCCC3)ccc2O1
inactive: cytotoxicity call (HSkMC) | cytotoxicity call (HepG2) | growth inhibition call (S. aureus RN4220)

CN(Cc1[nH]nc2c1CCCC2)C(=O)Cc1c[nH]c(=O)n(C)c1=O
inactive: cytotoxicity call (HSkMC) | cytotoxicity call (HepG2) | growth inhibition call (S. aureus RN4220)

C[C@H]1CN([C@@H](C)CO)C(=O)c2cc(NS(=O)(=O)c3cccs3)ccc2O[C@H]1CN(C)S(=O)(=O)c1cccs1
inactive: cytotoxicity call (HSkMC) | cytotoxicity call (HepG2) | growth inhibition call (S. aureus RN4220)

O=C1CNC(=S)N1c1ccccc1
inactive: cytotoxicity call (HSkMC) | cytotoxicity call (HepG2) | growth inhibition call (S. aureus RN4220)

C[C@@H]1CN([C@H](C)CO)C(=O)c2cc(NC(=O)Nc3ccccc3)ccc2O[C@@H](C)CCCCO[C@H]1CN(C)C(=O)Nc1ccc(C(F)(F)F)cc1
inactive: cytotoxicity call (HSkMC) | cytotoxicity call (HepG2) | growth inhibition call (S. aureus RN4220)

C[C@H]1CN([C@@H](C)CO)C(=O)c2cc(NC(=O)Cc3ccccc3)ccc2O[C@@H]1CN(C)C(=O)Nc1cccc2ccccc12
inactive: cytotoxicity call (HSkMC) | cytotoxicity call (HepG2) | growth inhibition call (S. aureus RN4220)

C[C@@H]1CCCCO[C@@H](CN(C)C(=O)c2ccccc2)[C@@H](C)CN([C@H](C)CO)C(=O)c2cc(NC(=O)CCC(F)(F)F)ccc2O1
inactive: cytotoxicity call (HSkMC) | cytotoxicity call (HepG2) | growth inhibition call (S. aureus RN4220)

NC(=O)Nc1ccc(C(=O)O)cc1
inactive: cytotoxicity call (HSkMC) | cytotoxicity call (HepG2) | growth inhibition call (S. aureus RN4220)

CC(CCC(=O)O)C1CCC2C3CCC4CCCCC4(C)C3CCC12C (stereo unspecified)
inactive: cytotoxicity call (HSkMC) | cytotoxicity call (HepG2) | growth inhibition call (S. aureus RN4220)

O=C(CCCCCCC(=O)N/N=C/[C@H](O)[C@@H](O)[C@@H](O)[C@H](O)C(=O)O)NO
inactive: cytotoxicity call (HSkMC) | cytotoxicity call (HepG2) | growth inhibition call (S. aureus RN4220)

CC(C)NC(=O)N(C)C[C@H]1Oc2ccc(NC(=O)CCCN(C)C)cc2CC(=O)N([C@@H](C)CO)C[C@@H]1C
inactive: cytotoxicity call (HSkMC) | cytotoxicity call (HepG2) | growth inhibition call (S. aureus RN4220)

C[C@H]1CCCCO[C@H](CN(C)C)[C@@H](C)CN([C@@H](C)CO)C(=O)c2cc(NS(=O)(=O)c3cn(C)cn3)ccc2O1
inactive: cytotoxicity call (HSkMC) | cytotoxicity call (HepG2) | growth inhibition call (S. aureus RN4220)
